Reference: PubChem BioAssay AID504333 (National Center for Advancing Translational Sciences (NCATS), 2011)
Among all 360,000 compounds or so, about 16,000 (4.4%) were called active. Inconclusive results, whose numbers are uncertain, are shown with a selection of clear calls. Calls come from the whole dose curve; as a rule, active = well fitted inhibition curve with a large enough effect; inconclusive = small, poorly fitted or top-dose-only effect; inactive = no such curve, though single readings can be large or run the other way. Potencies beside an inconclusive call are fits to weak or partial responses and may not hold up.

The compounds below were run against Bromodomain adjacent to zinc finger domain protein 2B (Homo sapiens) (UniProt Q9UIF8) (assay: qHTS Assay for Inhibitors of BAZ2B). Conditions: AlphaScreen BAZ2B-H3K14Ac peptide displacement; activity change, negative = inhibition: at 114 µM (top of the series).
Procedure, shortened: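 AlphaScreen displacement: compounds (up to 110uM) incubated 30 min at room temperature with a preformed 50 nM BAZ2B/50 nM biotinylated H3K14Ac peptide complex in PBS pH 7.4 with Tween-20. Donor and acceptor beads at 10 ug/mL final added, 20 min light-protected before reading.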
% is set by controls: 0 for no effect and ±100 for the full control effect; potency is the fitted concentration of half-maximal effect; tags give direction and shape of the fitted curve.
Note: nearly all actives have a fitted effect of over 60% in size.

Sequence of UniProt Q9UIF8 (Q9UIF8 whole entry, looked up, the tested form may be a part): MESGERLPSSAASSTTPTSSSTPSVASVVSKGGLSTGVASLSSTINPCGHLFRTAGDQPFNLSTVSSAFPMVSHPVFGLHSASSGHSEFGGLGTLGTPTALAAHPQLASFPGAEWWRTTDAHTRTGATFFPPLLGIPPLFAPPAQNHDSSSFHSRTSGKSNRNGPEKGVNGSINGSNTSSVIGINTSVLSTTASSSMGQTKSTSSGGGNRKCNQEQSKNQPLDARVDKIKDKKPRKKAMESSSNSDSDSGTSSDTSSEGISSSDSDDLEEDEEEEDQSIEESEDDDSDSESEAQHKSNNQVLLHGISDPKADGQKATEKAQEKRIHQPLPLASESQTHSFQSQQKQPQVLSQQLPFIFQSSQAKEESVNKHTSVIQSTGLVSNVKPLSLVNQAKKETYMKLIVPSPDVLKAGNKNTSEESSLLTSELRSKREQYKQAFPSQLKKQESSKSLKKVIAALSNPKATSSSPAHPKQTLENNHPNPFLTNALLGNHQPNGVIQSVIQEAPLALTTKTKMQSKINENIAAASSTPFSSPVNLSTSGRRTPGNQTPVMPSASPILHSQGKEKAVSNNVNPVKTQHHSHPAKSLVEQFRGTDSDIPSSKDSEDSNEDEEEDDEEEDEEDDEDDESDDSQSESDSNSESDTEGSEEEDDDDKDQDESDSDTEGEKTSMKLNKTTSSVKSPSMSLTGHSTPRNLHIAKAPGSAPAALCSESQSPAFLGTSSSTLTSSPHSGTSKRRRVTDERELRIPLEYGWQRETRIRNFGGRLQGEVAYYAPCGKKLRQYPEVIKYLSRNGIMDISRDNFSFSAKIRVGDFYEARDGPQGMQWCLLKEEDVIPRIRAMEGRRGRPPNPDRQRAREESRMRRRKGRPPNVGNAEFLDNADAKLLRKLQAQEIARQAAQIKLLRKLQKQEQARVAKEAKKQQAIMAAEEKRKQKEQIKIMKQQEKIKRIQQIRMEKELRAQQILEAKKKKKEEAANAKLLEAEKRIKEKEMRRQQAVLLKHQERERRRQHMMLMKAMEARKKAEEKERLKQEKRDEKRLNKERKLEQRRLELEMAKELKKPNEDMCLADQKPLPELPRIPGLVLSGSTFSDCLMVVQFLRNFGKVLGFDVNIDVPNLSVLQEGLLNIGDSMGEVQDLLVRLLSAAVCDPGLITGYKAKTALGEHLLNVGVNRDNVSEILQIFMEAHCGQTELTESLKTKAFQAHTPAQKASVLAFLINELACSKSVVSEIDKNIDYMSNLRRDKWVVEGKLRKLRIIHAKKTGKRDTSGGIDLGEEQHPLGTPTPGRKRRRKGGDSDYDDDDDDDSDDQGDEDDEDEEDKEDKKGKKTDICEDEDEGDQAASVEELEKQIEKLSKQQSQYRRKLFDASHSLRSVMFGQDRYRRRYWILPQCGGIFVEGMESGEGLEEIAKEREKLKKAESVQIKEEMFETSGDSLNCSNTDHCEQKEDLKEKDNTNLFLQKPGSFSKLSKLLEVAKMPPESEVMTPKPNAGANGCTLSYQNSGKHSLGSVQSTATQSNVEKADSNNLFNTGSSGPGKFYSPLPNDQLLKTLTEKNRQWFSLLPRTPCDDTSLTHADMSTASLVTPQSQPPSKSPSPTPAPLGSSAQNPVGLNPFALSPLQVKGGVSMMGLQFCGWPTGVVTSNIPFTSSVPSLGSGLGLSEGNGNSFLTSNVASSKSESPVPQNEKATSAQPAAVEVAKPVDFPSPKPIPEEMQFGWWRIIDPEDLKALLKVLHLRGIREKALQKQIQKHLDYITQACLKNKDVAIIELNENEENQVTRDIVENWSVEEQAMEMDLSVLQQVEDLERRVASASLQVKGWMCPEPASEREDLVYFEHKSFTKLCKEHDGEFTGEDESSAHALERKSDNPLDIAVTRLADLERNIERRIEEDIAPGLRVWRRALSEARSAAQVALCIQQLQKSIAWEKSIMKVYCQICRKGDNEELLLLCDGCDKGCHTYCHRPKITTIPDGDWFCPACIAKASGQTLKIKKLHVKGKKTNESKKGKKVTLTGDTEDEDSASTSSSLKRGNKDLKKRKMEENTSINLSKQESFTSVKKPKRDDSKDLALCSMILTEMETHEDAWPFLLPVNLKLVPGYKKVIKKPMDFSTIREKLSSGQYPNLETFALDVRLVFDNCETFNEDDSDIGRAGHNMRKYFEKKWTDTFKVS

Q: For O=C1c2cccnc2C(=O)N1Cc1ccc(F)cc1, which Potency is on record?
A: Its Potency is inconclusive: 79.4 µM [inhibitor, partial curve].

Q: For O=C(O)COc1ccc(Br)cc1/C=N/O, which Potency is on record?
A: Its Potency is inconclusive: 79.4 µM [inhibitor, single point].

Q: Cc1ccc(O)c(CNc2cnc3ccccc3c2)c1 was tested. Which Potency did it give?
A: The Potency was inconclusive: 89.1 µM [inhibitor, single point].

Q: With COC(=O)c1sc2ncn(CC(=O)N(C)C3CCCCC3)c(=O)c2c1C as the compound, how does the “activity change, negative = inhibition” value read?
A: Its value is inactive: -0.153%.

Q: How did the “activity change, negative = inhibition” value turn out when COc1cccc(/C=N/Nc2nn3cnnc3c3ccccc23)c1O was run?
A: Its value is inactive: 0.11%.

Q: How did the Potency turn out when CCOC(=O)c1ccc(N2CCN(c3ccc(F)cc3)CC2)c(NC(=O)Nc2cccc(OC)c2)c1 was run?
A: Its Potency is inconclusive: 22.4 µM [inhibitor, single point].

Q: Which Potency does the source give for Cc1ccc(C)c(N2C(=N)S/C(=C\c3ccc(-c4ccccc4C(=O)O)o3)C2=O)c1 here?
A: Its Potency is active: 20 µM.

Q: With COc1ccc(OCc2ccc(-c3nc(C#N)c(N4CCC(C)CC4)o3)o2)cc1 as the compound, how does the Potency read?
A: The Potency was active: 3.55 µM.

Q: With CC(=O)c1ccc(-n2c(CCC(=O)O)ccc2-c2ccc(C)cc2)cc1 as the compound, how does the “activity change, negative = inhibition” value read?
A: The value was inactive: -38.5%.

Q: CC/C(=N\Nc1ccccc1[N+](=O)[O-])c1ccc(O)cc1 was tested. Which Potency did it give?
A: Its Potency is active: 6.31 µM.

Q: Which “activity change, negative = inhibition” value does the source give for CCOc1ccc(/C=N/NC(=O)c2ccoc2C)cc1OC here?
A: The value was inactive: 0.939%.

Q: With O=C(c1cccc(OC2CCN(Cc3cccc(OCCO)c3)CC2)c1)N1CCCC1 as the compound, how does the Potency read?
A: Its Potency is inconclusive: 70.8 µM [inhibitor, single point].

Q: For CCCCN(C)Cc1cc(=O)oc2cc3c(cc12)CCCC3, which “activity change, negative = inhibition” value is on record?
A: The value was inactive: 34.9%.

Q: Which “activity change, negative = inhibition” value does the source give for Cc1cc(C)nc(Nc2cccc(C(F)(F)F)c2)n1 here?
A: The value was inactive: 7.94%.

Q: How did the Potency turn out when Cc1cc(C)cc(-n2c3nc4ccccc4nc3c3c(=O)n(Cc4ccco4)cnc32)c1 was run?
A: The Potency was active: 50.1 µM.

Q: With CCOC(=O)c1[nH]c2c(c1-c1ccccc1)C(=O)CC(c1ccc(Cl)cc1)C2 (centres undefined) as the compound, how does the “activity change, negative = inhibition” value read?
A: The value was inactive: 3.42%.

Q: COc1ccc(NC(=O)CSc2nnc(-c3cc(C)[nH]n3)n2N)cc1 was tested. Which “activity change, negative = inhibition” value did it give?
A: Its value is inactive: -17.7%.

Q: COc1ccc(-n2c(Cc3cccn3C)nnc2SCC(=O)NCc2ccc(F)cc2)cc1 was tested. Which Potency did it give?
A: Its Potency is inconclusive: 50.1 µM [inhibitor, partial curve].

Q: For C=CCn1c2ccccc2c2nnc(SC(CC)C(=O)Nc3nc(C)c(C(=O)OCC)s3)nc21 (centres undefined), which “activity change, negative = inhibition” value is on record?
A: The value was inactive: 0.0442%.

Q: COc1cc(C2NC(=O)C(C#N)=C(S)N2c2ccc(C)cc2)ccc1OC(C)C (centres undefined) was tested. Which “activity change, negative = inhibition” value did it give?
A: The value was inactive: -34.8%.

Q: Cc1ccc(NC(=O)NCc2ccccn2)cc1 was tested. Which Potency did it give?
A: Its Potency is inconclusive: 70.8 µM [inhibitor, partial curve, poor fit].

Q: Which “activity change, negative = inhibition” value does the source give for COc1ccc(CCNC(=O)COc2ccc(-c3ccc(C#N)cc3)cc2)cc1 here?
A: Its value is inactive: -3.71%.

Q: Which Potency does the source give for O=C(NN1C(=O)CSC1=S)C(=O)NN1C(=O)CSC1=S here?
A: Its Potency is inconclusive: 0.794 µM [inhibitor, full curve, poor fit].

Q: For Cc1cc(C)n(C(=O)CSc2nnc(SCC(=O)n3nc(C)cc3C)s2)n1, which “activity change, negative = inhibition” value is on record?
A: The value was inactive: 22.4%.

Q: With Cc1sc(C(C2C(=O)CC(C)(C)CC2=O)C2C(=O)CC(C)(C)CC2=O)cc1[N+](=O)[O-] as the compound, how does the Potency read?
A: Its Potency is active: 56.2 µM.

Q: NC(=O)C1CCN(C(=O)CCc2nc3sc4c(c3c(=O)[nH]2)CCCC4)CC1 was tested. Which Potency did it give?
A: The Potency was active: 50.1 µM.

Q: Which Potency does the source give for O=C(Nc1ccc(Nc2ccccc2)cc1)N1CCOCC1 here?
A: The Potency was inconclusive: 70.8 µM [inhibitor, single point].

Q: For COc1ccc(/C=C2\Sc3ccc(C(=O)NCCCN4CCCC4)cc3N(C)C2=O)cc1OC, which Potency is on record?
A: Its Potency is inconclusive: 28.2 µM [inhibitor, full curve].

Q: With O=C(Oc1ccccc1)c1cccc(COC(=O)c2cnccn2)c1 as the compound, how does the “activity change, negative = inhibition” value read?
A: Its value is inactive: 0.836%.

Q: How did the Potency turn out when Cc1ccc(S(=O)(=O)N2[C@@H](c3cccc(Cl)c3)C(C(=O)O)=CC[C@H]2c2ccc(Cl)c(Cl)c2)cc1 was run?
A: Its Potency is inconclusive: 89.1 µM [inhibitor, single point].

Q: With O=C(CSc1nnc(-c2cccs2)n1Cc1ccco1)Nc1ccc2c(c1)OCO2 as the compound, how does the Potency read?
A: The Potency was inconclusive: 31.6 µM [inhibitor, partial curve].

Q: Which Potency does the source give for CCOc1cc(/C=N/NC(=O)CN2CCCCC2)ccc1OCc1ccc(Cl)cc1 here?
A: Its Potency is active: 50.1 µM.

Q: O=C1NN=COc2ccccc21 was tested. Which Potency did it give?
A: The Potency was active: 56.2 µM.

Q: CCCCn1c(C)csc1=Nc1cccnc1 was tested. Which Potency did it give?
A: The Potency was inconclusive: 44.7 µM [inhibitor, partial curve].

Q: With COc1ccc(NC(=O)CN(c2ccc(OC)cc2)S(=O)(=O)c2ccc(OC)c(OC)c2)cc1 as the compound, how does the “activity change, negative = inhibition” value read?
A: The value was inactive: -6.69%.

Q: Which Potency does the source give for Cc1c(C(=O)Nc2ccc(F)cc2F)oc2ccc3c(c12)C(=O)CC(C)(C)O3 here?
A: Its Potency is inconclusive: 79.4 µM [inhibitor, single point].

Q: How did the “activity change, negative = inhibition” value turn out when CS(=O)(=O)c1nc(-c2ccc(F)cc2)cc(C(F)(F)F)n1 was run?
A: The value was inactive: -3.44%.

Q: CN(C)c1ccc(NC(=O)CN2CCC(N3CCCCC3)CC2)cc1 was tested. Which Potency did it give?
A: Its Potency is active: 44.7 µM.

Q: With CCOc1ccc(N=c2cc(-c3ccc(OC)cc3)oc3ccccc23)cc1 as the compound, how does the Potency read?
A: The Potency was active: 12.6 µM.

Q: CCCNC(=O)Cn1c(=O)/c(=C\c2ccc(-c3cccc([N+](=O)[O-])c3)o2)s/c1=C\C(=O)C(C)(C)C was tested. Which Potency did it give?
A: Its Potency is inconclusive: 50.1 µM [inhibitor, partial curve].

Q: N#CC1=C(N)Oc2cc(N)ccc2C1c1ccc(F)cc1F (centres undefined) was tested. Which Potency did it give?
A: Its Potency is inconclusive: 79.4 µM [inhibitor, single point].

Q: With CCOC(=O)c1ccc(NC(=O)c2n[nH]c(=O)c3ccccc23)cc1 as the compound, how does the “activity change, negative = inhibition” value read?
A: The value was inactive: -18.3%.

Q: Which Potency does the source give for COc1ccc(NC(=O)CSc2nccn2-c2ccccc2)cc1 here?
A: Its Potency is inconclusive: 44.7 µM [inhibitor, partial curve].

Q: O=S(=O)(Nc1cccc2ccccc12)c1cccc2nonc12 was tested. Which Potency did it give?
A: Its Potency is inconclusive: 70.8 µM [inhibitor, single point].

Q: COC(=O)c1[nH]c2ccc(C)cc2c1NC(=O)CN1CCN(c2ccccc2)CC1 was tested. Which Potency did it give?
A: The Potency was inconclusive: 50.1 µM [inhibitor, partial curve].

Q: For CCOC(=O)c1c(-c2ccc(C)o2)csc1NC(=S)NC(=O)c1cccs1, which Potency is on record?
A: Its Potency is inconclusive: 79.4 µM [inhibitor, single point].

Q: CCOc1ccc2c(c1)-c1c(ssc1=S)C(C)(C)N2C was tested. Which Potency did it give?
A: The Potency was active: 10 µM.

Q: How did the Potency turn out when CC(OC(=O)c1cc(O)c2ccccc2c1O)C(=O)Nc1ccc(C(N)=O)cc1 (centres undefined) was run?
A: The Potency was inconclusive: 50.1 µM [inhibitor, partial curve].

Q: COc1cc(CCC(=O)Nc2c(C(=O)N3CCN(c4ccccc4)CC3)oc3ccccc23)on1 was tested. Which Potency did it give?
A: The Potency was inconclusive: 28.2 µM [inhibitor, single point].
